Measurements published in patent US20200277339A1 (GENOME PROTECTION, published 2020).

Target: TLR5 of the cell-based reporter assays
Assay: cell-based or functional assay

B1: CBLB502-S33MX (ligand)
chain: MSGLRINSAKDDAAGQAIANRFTSNIKGLTQASRNAADGISIAQTTEGALNEINNNLQRVRELSVQATAGANADAALKAIQAEIQQRLEEIDRVSQQTQAAAVKVLSQDNAMAIQVGANDGAAITIDLQKIDVKSLGLDGFNVNSPGSTANPLASIDSALSKVDAVRSSLGAIQNRFDSAITNLGNTVTNLNSARSRIEDADYATEVSQMSKAQILQQAGTSVLAQANQVPQNVLSLLVPRGSHHHHHHG
  Signaling EC50 Normalized by CBLB502: 1.3 fold vs CBLB502
